# Reference: the supplement of paper PMC8728848
# This is one part of the list.
# B1: MPA (Maclura pomifera), P18674 (protein)
# chain: GVTFDDGAYTGIREINFEYNSETAIGGLRVTYDLNGMPFVAEDHKSFITGFKPVKISLEFPSEYIVEVSGYVGKVEGYTVIRSLTFKTNKQTYGPYGVTNGTPFSLPIENGLIVGFKGSIGYWLDYFSIYLSL
# Columns and labels:
# Experiment in all cases: glycan array binding signal (z-score within array); higher = stronger binding
# Settings in all cases: glycan notation: IUPAC condensed, linker removed
# [1] = target: Neu5Ac(a2-6)Gal(b1-4)GlcNAc(b1-3)Gal(b1-4)GlcNAc(b1-3)GalNAc
# How it was run: (§1)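 The binding signal is a Z-score computed within each array and averaged over linkers. Arrays of the same protein sequence at different concentrations or buffers were also averaged together. Data originate from 3228 arrays in the Consortium for Functional Glycomics database, kept only where the protein sequence was available.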
# [2] = target: Neu5Ac(a2-6)Gal(b1-4)GlcNAc(b1-3)Gal(b1-4)GlcNAc(b1-3)[Neu5Ac(a2-6)Gal(b1-4)GlcNAc(b1-3)Gal(b1-4)GlcNAc(b1-6)]GalNAc
# How it was run: as §1
# [3] = target: Neu5Ac(a2-6)Gal(b1-4)GlcNAc(b1-3)Gal(b1-4)GlcNAc(b1-6)[Gal(b1-3)]GalNAc
# How it was run: as §1
# [4] = target: Neu5Ac(a2-6)Gal(b1-4)GlcNAc(b1-3)Gal(b1-4)[Fuc(a1-3)]GlcNAc(b1-3)Gal(b1-4)[Fuc(a1-3)]GlcNAc
# How it was run: as §1
# [5] = target: Neu5Ac(a2-6)Gal(b1-4)GlcNAc(b1-3)GalNAc
# How it was run: as §1
# [6] = target: Neu5Ac(a2-6)Gal(b1-4)GlcNAc(b1-3)[Neu5Ac(a2-6)Gal(b1-4)GlcNAc(b1-6)]GalNAc
# How it was run: as §1
# [7] = target: Neu5Ac(a2-6)Gal(b1-4)GlcNAc(b1-6)GalNAc
# How it was run: as §1
# [8] = target: Neu5Ac(a2-6)Gal(b1-4)GlcNAc(b1-6)[Gal(b1-3)GlcNAc(b1-3)]Gal(b1-4)Glc
# How it was run: as §1
# [9] = target: Neu5Ac(a2-6)Gal(b1-4)GlcNAc(b1-6)[Gal(b1-3)]GalNAc
# How it was run: as §1
# [10] = target: Neu5Ac(a2-6)Gal(b1-4)GlcNAc6S
# How it was run: as §1
# Neu5Ac(a2-6)GalNAc = target: Neu5Ac(a2-6)GalNAc
# How it was run: as §1
# [11] = target: Neu5Ac(a2-6)GalNAc(b1-4)GlcNAc
# How it was run: as §1
# [12] = target: Neu5Ac(a2-6)GalNAc(b1-4)GlcNAc6S
# How it was run: as §1
# [13] = target: Neu5Ac(a2-6)GlcNAc(b1-4)GlcNAc
# How it was run: as §1
# [14] = target: Neu5Ac(a2-6)GlcNAc(b1-4)GlcNAc(b1-4)GlcNAc
# How it was run: as §1
# Neu5Ac(a2-8)Neu5Ac = target: Neu5Ac(a2-8)Neu5Ac
# How it was run: as §1
# [15] = target: Neu5Ac(a2-8)Neu5Ac(a2-3)Gal(b1-3)GalNAc(b1-4)[Neu5Ac(a2-3)]Gal(b1-4)Glc
# How it was run: as §1
# [16] = target: Neu5Ac(a2-8)Neu5Ac(a2-3)Gal(b1-3)GalNAc(b1-4)[Neu5Ac(a2-8)Neu5Ac(a2-3)]Gal(b1-4)Glc
# How it was run: as §1
# [17] = target: Neu5Ac(a2-8)Neu5Ac(a2-3)Gal(b1-4)Glc
# How it was run: as §1
# [18] = target: Neu5Ac(a2-8)Neu5Ac(a2-3)Gal(b1-4)GlcNAc
# How it was run: as §1
# [19] = target: Neu5Ac(a2-8)Neu5Ac(a2-3)[Gal(b1-3)GalNAc(b1-4)]Gal(b1-4)Glc
# How it was run: as §1
# [20] = target: Neu5Ac(a2-8)Neu5Ac(a2-3)[GalNAc(b1-4)]Gal(b1-4)Glc
# How it was run: as §1
# [21] = target: Neu5Ac(a2-8)Neu5Ac(a2-8)Neu5Ac
# How it was run: as §1
# [22] = target: Neu5Ac(a2-8)Neu5Ac(a2-8)Neu5Ac(a2-3)Gal(b1-4)Glc
# How it was run: as §1
# [23] = target: Neu5Ac(a2-8)Neu5Ac(a2-8)Neu5Ac(a2-3)[Gal(b1-3)GalNAc(b1-4)]Gal(b1-4)Glc
# How it was run: as §1
# [24] = target: Neu5Ac(a2-8)Neu5Ac(a2-8)Neu5Ac(a2-3)[GalNAc(b1-4)]Gal(b1-4)Glc
# How it was run: as §1
# [25] = target: Neu5Ac(a2-8)Neu5Ac(a2-8)Neu5Ac(a2-8)Neu5Ac(a2-3)[GalNAc(b1-4)]Gal(b1-4)Glc
# How it was run: as §1
# [26] = target: Neu5Ac(a2-8)Neu5Gc(a2-3)Gal(b1-4)GlcNAc
# How it was run: as §1
# [27] = target: Neu5Ac(b2-6)Gal(b1-4)GlcNAc
# How it was run: as §1
# Neu5Ac(b2-6)GalNAc = target: Neu5Ac(b2-6)GalNAc
# How it was run: as §1
# [28] = target: Neu5Ac9Ac(a2-3)Gal(b1-3)GlcNAc
# How it was run: as §1
# [29] = target: Neu5Ac9Ac(a2-3)Gal(b1-4)GlcNAc
# How it was run: as §1
# [30] = target: Neu5Ac9Ac(a2-6)Gal(b1-4)GlcNAc
# How it was run: as §1
# [31] = target: Neu5Gc(a2-3)Gal(b1-3)GlcNAc
# How it was run: as §1
# [32] = target: Neu5Gc(a2-3)Gal(b1-3)[Fuc(a1-4)]GlcNAc
# How it was run: as §1
# Neu5Gc(a2-3)Gal(b1-4)Glc = target: Neu5Gc(a2-3)Gal(b1-4)Glc
# How it was run: as §1
# [33] = target: Neu5Gc(a2-3)Gal(b1-4)GlcNAc
# How it was run: as §1
# [34] = target: Neu5Gc(a2-3)Gal(b1-4)GlcNAc(b1-3)Gal(b1-4)GlcNAc(b1-2)Man(a1-3)[Neu5Gc(a2-3)Gal(b1-4)GlcNAc(b1-3)Gal(b1-4)GlcNAc(b1-2)Man(a1-6)]Man(b1-4)GlcNAc(b1-4)GlcNAc
# How it was run: as §1
# [35] = target: Neu5Gc(a2-3)Gal(b1-4)[Fuc(a1-3)]GlcNAc
# How it was run: as §1
# [36] = target: Neu5Gc(a2-6)Gal(b1-4)GlcNAc
# How it was run: as §1
# Neu5Gc(a2-6)GalNAc = target: Neu5Gc(a2-6)GalNAc
# How it was run: as §1
# [37] = target: Neu5Gc(a2-8)Neu5Ac(a2-3)Gal(b1-4)GlcNAc
# How it was run: as §1
# [38] = target: Neu5Gc(a2-8)Neu5Gc(a2-3)Gal(b1-4)GlcNAc
# How it was run: as §1
# [39] = target: Neu5Gc(a2-8)Neu5Gc(a2-3)Gal(b1-4)GlcNAc(b1-3)Gal(b1-4)GlcNAc
# How it was run: as §1
# [40] = target: Neu5Gc(a2-8)Neu5Gc(a2-6)Gal(b1-4)GlcNAc
# How it was run: as §1
# [41] = target: Neu5Gc(b2-6)Gal(b1-4)GlcNAc
# How it was run: as §1
binder,measurement,setting,value
B1,glycan array binding signal (z-score),[1],-0.267
same,glycan array binding signal (z-score),[2],1.31
same,glycan array binding signal (z-score),[3],-0.047
same,glycan array binding signal (z-score),[4],0.054
same,glycan array binding signal (z-score),[5],-0.115
same,glycan array binding signal (z-score),[6],-0.252
same,glycan array binding signal (z-score),[7],-0.13
same,glycan array binding signal (z-score),[8],-0.184
same,glycan array binding signal (z-score),[9],0.018
same,glycan array binding signal (z-score),[10],-0.25
same,glycan array binding signal (z-score),Neu5Ac(a2-6)GalNAc,-0.268
same,glycan array binding signal (z-score),[11],-0.246
same,glycan array binding signal (z-score),[12],-0.275
same,glycan array binding signal (z-score),[13],-0.39
same,glycan array binding signal (z-score),[14],-0.276
same,glycan array binding signal (z-score),Neu5Ac(a2-8)Neu5Ac,-0.149
same,glycan array binding signal (z-score),[15],-0.174
same,glycan array binding signal (z-score),[16],-0.116
same,glycan array binding signal (z-score),[17],-0.25
same,glycan array binding signal (z-score),[18],-0.162
same,glycan array binding signal (z-score),[19],-0.316
same,glycan array binding signal (z-score),[20],-0.273
same,glycan array binding signal (z-score),[21],-0.172
same,glycan array binding signal (z-score),[22],-0.151
same,glycan array binding signal (z-score),[23],-0.044
same,glycan array binding signal (z-score),[24],-0.313
same,glycan array binding signal (z-score),[25],-0.179
same,glycan array binding signal (z-score),[26],-0.217
same,glycan array binding signal (z-score),[27],-0.246
same,glycan array binding signal (z-score),Neu5Ac(b2-6)GalNAc,-0.253
same,glycan array binding signal (z-score),[28],-0.231
same,glycan array binding signal (z-score),[29],-0.048
same,glycan array binding signal (z-score),[30],-0.237
same,glycan array binding signal (z-score),[31],-0.181
same,glycan array binding signal (z-score),[32],-0.239
same,glycan array binding signal (z-score),Neu5Gc(a2-3)Gal(b1-4)Glc,-0.156
same,glycan array binding signal (z-score),[33],-0.183
same,glycan array binding signal (z-score),[34],-0.196
same,glycan array binding signal (z-score),[35],-0.208
same,glycan array binding signal (z-score),[36],-0.125
same,glycan array binding signal (z-score),Neu5Gc(a2-6)GalNAc,-0.246
same,glycan array binding signal (z-score),[37],-0.295
same,glycan array binding signal (z-score),[38],-0.288
same,glycan array binding signal (z-score),[39],-0.219
same,glycan array binding signal (z-score),[40],-0.261
same,glycan array binding signal (z-score),[41],-0.109
